Test results: PubChem BioAssay AID540317 (National Center for Advancing Translational Sciences (NCATS), 2011)
The campaign covered roughly 390,000 compounds. About 2,200 (0.56%) were called active. The shares of active, inactive and inconclusive entries below differ from those in the screen. Calls come from the whole dose curve; as a rule, active = well fitted inhibition curve with a large enough effect; inconclusive = small, poorly fitted or top-dose-only effect; inactive = no such curve, though single readings can be large or run the other way. Potencies of inconclusive entries are doubtful fits and often do not repeat.

Molecular target: Chromobox protein homolog 1 (Homo sapiens) (UniProt P83916)
Experiment: HTS for Inhibitors of HP1-beta Chromodomain Interactions with Methylated Histone Tails; note: nearly all actives have a fitted effect of over 70% in size
Settings: AlphaScreen HP1-beta / biotin-H3K9me3 peptide binding; series mostly up to 114 µM
Procedure, shortened: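 AlphaScreen: HP1-beta (50 nM) preformed 30 min with biotin-H3(1-18)K9me3 peptide (50 nM) in PBS pH 7.4, 0.01% Tween-20. Compound added for 30 min at RT, then streptavidin donor/nickel chelate acceptor beads (10 ug/mL) for 30 min.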
Potency is the fitted concentration of half-maximal effect; tags give direction and shape of the fitted curve.

UniProt P83916, sequence (P83916 whole entry, looked up): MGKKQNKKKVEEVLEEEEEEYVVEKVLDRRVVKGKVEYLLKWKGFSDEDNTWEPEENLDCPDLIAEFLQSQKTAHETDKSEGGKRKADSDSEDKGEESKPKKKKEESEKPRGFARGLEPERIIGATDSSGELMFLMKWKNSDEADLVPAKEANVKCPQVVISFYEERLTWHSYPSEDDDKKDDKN

SMILES	Potency
S=C(NCC1CCCO1)Nc1ccc(Nc2ccccc2)cc1 (stereo not drawn)	inconclusive: 56.2 µM [inhibitor, single point]
COC(=O)c1c(-c2ccc(C(C)(C)C)cc2)csc1NC(=O)C1C2CCC(O2)C1C(=O)O (stereo not drawn)	inconclusive: 10 µM [inhibitor, full curve, poor fit]
Cc1ccc(-n2c(C)cc(C3N=C(N)Nc4nc5ccccc5n43)c2C)c(C)c1 (stereo not drawn)	inconclusive: 50.1 µM [inhibitor, partial curve, poor fit]
Cc1[nH]c2ccccc2c1/C=N/NC(=O)c1cc(C(C)(C)C)[nH]n1	inactive
Nc1cc(N)c(OCC(F)(F)F)cc1OCC(F)(F)F	inconclusive: 3.16 µM [inhibitor, partial curve, poor fit]
COc1ccc(N2CCN(C(=O)c3cc(-c4ccc(F)cc4)[nH]c3C)CC2)cc1	inconclusive: 44.7 µM [inhibitor, partial curve, poor fit]
CN(C)c1ccc(-c2ccc([C@H]3[C@@H]4C=CCC[C@@]4(C)C(=O)N3Cc3ccccc3)c(F)c2)cc1	inconclusive: 14.1 µM [inhibitor, partial curve, poor fit]
COc1ccc(CN2CC(=O)N(c3cccc(Cl)c3)C2=S)cc1OC	inactive
O=C(Oc1ccc2c(c1)OCO2)c1cc2c(s1)CCC2	inconclusive: 3.98 µM [inhibitor, full curve, poor fit]
Cc1cc(C(=O)C[N+]2(C)CCOCC2)c(C)n1-c1ccc(Br)cc1	inactive
COc1ccccc1-c1nc(C#N)c(N2CCN(c3cccc(Cl)c3)CC2)o1	inconclusive: 7.08 µM [inhibitor, full curve]
N#Cc1c(NC(=O)CSc2ncnc3sccc23)oc(-c2ccco2)c1-c1ccco1	inconclusive: 56.2 µM [inhibitor, partial curve, poor fit]
CC(=O)NNc1nc(-c2ccccc2)cs1	inactive
C=CCCC(=O)Nc1nc(C)c(-c2csc(Nc3cc(OC)ccc3OC)n2)s1	inconclusive: 44.7 µM [inhibitor, partial curve, poor fit]
CCOC(=O)C(C)/C(C)=N\Nc1ccc([N+](=O)[O-])cc1[N+](=O)[O-] (stereo not drawn)	inconclusive: 20 µM [inhibitor, full curve]
Cc1ccc(CNC(=O)Cn2cc(C(=O)c3ccc(Cl)cc3)c(=O)c3ccc(C)nc32)cc1	inactive
Cc1nn(CC(=O)NCc2ccccc2Br)c(=O)c2cc3occc3n12	inactive
O=C(Nc1nc(-c2ccc(Cl)cc2)cs1)c1cccnc1	inconclusive: 7.08 µM [inhibitor, single point]
COc1ccc(CN(CCC#N)C(=S)NC(=O)c2ccccc2)cc1	inactive
COC(=O)N/N=C/c1cc(N=Nc2ccccc2Cl)ccc1O	inactive
O=C(O)c1ccc(NC(=S)Nc2ccc(S(=O)(=O)Nc3ccccn3)cc2)cc1	inactive
Cc1cc(C(=O)COC(=O)CNC(=O)c2ccc(F)cc2)c(C)n1Cc1ccco1	inconclusive: 70.8 µM [inhibitor, partial curve, poor fit]

SMILES	Potency
Cc1cc(C)c(C)c(OCCN2CC(C)OC(C)C2)c1 (stereo not drawn)	inconclusive: 12.6 µM [inhibitor, partial curve, poor fit]
Cc1ccc(C)c2sc(N3CCN(C(=O)c4ccc([N+](=O)[O-])o4)CC3)nc12	inconclusive: 44.7 µM [inhibitor, partial curve]
COc1ccc(C2(CNC(=O)c3ccccc3)CCCC2)cc1OC	inactive
Cc1cc(/C=C2\SC(=S)NC2=O)c(C)n1-c1cccc(O)c1	inconclusive: 44.7 µM [inhibitor, partial curve]
Cc1ccc2nc(-c3ccc(NC(=O)COCC(=O)O)cc3)sc2c1	inactive
CCOC(=O)c1cnc(-n2nc(C)cc2C)nc1N(C)C	inconclusive: 0.891 µM [inhibitor, full curve, poor fit]
COc1ccc(N=C2C(=Nc3ccc(OC)cc3)N(c3ccc(N(C)C)cc3)C(=S)N2c2ccc(OC)cc2)cc1	inconclusive: 1.12 µM [inhibitor, full curve]
COC(=O)Cc1ccc(NC(=O)c2ccc(C(C)(C)C)cc2)cc1	inconclusive: 28.2 µM [inhibitor, single point]
CCn1nnnc1NCc1ccc(N2CCCC2)cc1	inconclusive: 25.1 µM [inhibitor, full curve]
c1ccn(-c2ccc(-c3ccn[nH]3)cc2)c1	inconclusive: 50.1 µM [inhibitor, partial curve, poor fit]
O=C(Nc1ccc(N2CCCCC2)cc1)c1ccc([N+](=O)[O-])o1	inconclusive: 15.8 µM [inhibitor, full curve]
COc1ccc(S(=O)(=O)N2N=C(c3ccc(NS(C)(=O)=O)cc3)CC2c2ccco2)cc1 (stereo not drawn)	inactive
COc1ccc(Nc2cc(C(=O)NCCCN(C)C3CCCCC3)c3ccccc3n2)cc1	inconclusive: 31.6 µM [inhibitor, partial curve, poor fit]
CCN(CC)c1ccc(NC(=O)COC(=O)C2CCN(c3ccc(C(F)(F)F)cn3)CC2)cc1	inconclusive: 28.2 µM [inhibitor, partial curve]
CN(CC(=O)NCc1cccc(F)c1)C(=O)c1ccco1	inactive
CC(C)(C)c1nn(-c2ccccc2)c2[nH]c(=O)c(CNc3ccc4c(c3)OCCO4)cc12	inconclusive: 20 µM [inhibitor, full curve]
COc1cc(-c2nc(Cn3nnc(C(=O)Nc4ccc(C)cc4C)c3C)c(C)o2)cc(OC)c1OC	inactive
C#CCN(Cc1ccco1)C(=O)c1ccc(OC2CCN(Cc3ccccn3)CC2)cc1	inconclusive: 39.8 µM [inhibitor, single point]
CCOc1ccc(CN2CCNC(=O)C2CC(=O)NCCC2=CCCCC2)cc1 (stereo not drawn)	inactive
COc1ccc(CN2CCN(Cc3ccccc3F)CC2)cc1OC	inconclusive: 15.8 µM [inhibitor, full curve]
NS(=O)(=O)c1ccc(N/N=C/c2ccc[nH]2)c([N+](=O)[O-])c1	inconclusive: 20 µM [inhibitor, full curve]
